# “And” between values parts separate entries of the source, which are not always exact repeats. Equal entries are not always repeated. This is one part of the list. Shown are side measurements of this screen, not its main read-out; they come without a call.
# What was measured:
# Test in all cases: Primary Screen for Target Class Profiling of Small Molecule Inhibitors of Methyltransferases
# [1] = target: Glycine N-methyltransferase (Homo sapiens) (UniProt Q14749); conditions: purified enzyme, MTase-Glo SAH luminescence; measured here: GNMT inhibition; at 40 µM; stronger effect = lower value
# Method in brief: (§1)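 Each enzyme was assayed with SAM and its substrate. SAH formation detected by MTase-Glo luminescence; single-point 40 uM screen[…].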
# [2] = target: Guanidinoacetate N-methyltransferase (Homo sapiens) (UniProt Q14353); conditions: purified enzyme, MTase-Glo SAH luminescence; measured here: GAMT inhibition; at 40 µM; stronger effect = lower value
# Method in brief: as §1
# [3] = target: Histamine N-methyltransferase (Homo sapiens) (UniProt P50135); conditions: purified enzyme, MTase-Glo SAH luminescence; measured here: HNMT inhibition; at 40 µM; stronger effect = lower value
# Method in brief: as §1
# [4] = target: Nicotinamide N-methyltransferase (Homo sapiens) (UniProt P40261); conditions: purified enzyme, MTase-Glo SAH luminescence; measured here: NNMT inhibition; at 40 µM; stronger effect = lower value
# Method in brief: as §1
# [5] = target: Phenylethanolamine N-methyltransferase (Homo sapiens) (UniProt P11086); conditions: purified enzyme, MTase-Glo SAH luminescence; measured here: PNMT inhibition; at 40 µM; stronger effect = lower value
# Method in brief: as §1
# On the % scale 0 is the no-effect control and ±100 the full control effect.
Compound,"activity change, negative = inhibition [1]","activity change, negative = inhibition [2]","activity change, negative = inhibition [3]","activity change, negative = inhibition [4]","activity change, negative = inhibition [5]"
O[C@@H]1C[C@@H](c2nc(-c3cnccn3)no2)N(Cc2cccs2)C1,-6.06%,-9.69%,-6.09%,-18.3%,-10.6%
Cc1ccc(S(=O)(=O)c2nnn3c2nc(N2CCC(C(N)=O)CC2)c2ccccc23)cc1C,-15.5%,-6.22%,-2.75%,-10.3%,-6.33%
CN1C(=O)c2cc(C(=O)NCc3ccccc3Cl)nn2CC1(C)C(=O)NCc1ccc(F)cc1 (stereo not drawn),7.86%,3.32%,9.25%,0.241%,5.72%
Cc1ccccc1CNC(=O)c1cc2cn(C(C)C)cc2s1,-8.44%,-0.007%,-1.3%,-4.45%,-17.2%
O=c1c2nc(NCCOc3ccccc3)ccc2ncn1Cc1ccccc1,-8.61%,2.71%,-4.75%,-9.47%,-4.86%
CC(C)Oc1ccc(CN2C(=O)c3cc4occc4n3CC2(C)C(=O)NC2CCCC(C)C2C)cc1 (stereo not drawn),0.712%,-7.35%,7.17%,-1.75%,-0.12%
COc1ccc(CN2C(=O)c3c(-n4cccc4)c4ccccc4n3CC2(C)C(=O)NC2CCCC2)cc1 (stereo not drawn),5.01%,0.335%,0.802%,3.65%,2.9%
CCCn1c(=O)c2ccc(Cl)cc2n2c(=O)n(Cc3ccccc3Cl)nc12,1.6%,2.75%,4.26%,2.06%,3.64%
COc1ccc2cc3n(c2c1)CC(C)(C(=O)NC1CCCCC1)N(CCC(C)C)C3=O (stereo not drawn),-1.95%,4.97%,-0.426%,3.19%,-6.35%
CSc1cccc(N2C(=O)CSc3c(c4ccccc4n3C)C2C(=O)NCc2ccc(F)cc2)c1 (stereo not drawn),-0.764%,0%,11.8%,9.9%,7.16%
Cc1cc(C)nc(N2C[C@H]3OC(=O)N(CCc4cccc(Cl)c4)[C@H]3C2)n1,-6.7%,-5.47%,-1.18%,-5.37%,-2.32%
CC1(C(=O)NCC2CCCO2)Cn2c(cc3ccccc32)C(=O)N1Cc1cccc(F)c1 (stereo not drawn),0.29%,4.37%,0.292%,0.396%,-0.283%
CCC[C@@H]1CN(C(=O)c2ccccc2-c2ccccc2F)C[C@H]1NC(C)=O,-1.07%,-10.1%,-1.3%,-6.49%,0.555%
COC(=O)c1cc2n(n1)CC(C)(C(=O)NC1CCC(C)CC1)N(c1ccc(OC)cc1)C2=O (stereo not drawn),4.06%,1.3%,7.09%,8.37%,2.42%
O=C1CC(=O)Nc2cc(S(=O)(=O)Nc3cccc(Br)c3)ccc2N1,-2.18%,2.04%,1.62%,0.57%,3.95%
COc1ccc(-c2cc3n(n2)CC(C)(C(=O)NCc2ccccc2OC)N(c2ccc(F)cc2)C3=O)cc1 (stereo not drawn),-1.41%,3.87%,-0.823%,-3.03%,-1.98%
COCCCNC(=O)C1(C)Cn2nc(-c3ccccc3)cc2C(=O)N1c1ccc(C(C)C)cc1 (stereo not drawn),-3.05%,2.81%,-3.18%,-4.49%,-7.44%
CC1(C)CC[C@]2(C(=O)O[C@@H]3O[C@H](CO)[C@@H](O)[C@H](O)[C@H]3O)CC[C@]3(C)C(=CCC4[C@@]5(C)CC[C@H](O[C@@H]6O[C@H](C(=O)O)[C@@H](O)[C@H](O[C@@H]7O[C@H](CO)[C@H](O)[C@H](O)[C@H]7O)[C@H]6O)C(C)(C)C5CC[C@]43C)C2C1 (stereo partly drawn),-1.67%,7.06%,8.19%,-7.74%,-2.13%
CCCCn1c(=O)c2sccc2n2c(CCC(=O)NCc3ccncc3)nnc12,4.74%,0.032%,7.59%,11.5%,2.88%
CC[C@H](C)C(=O)O[C@H]1C[C@@H](C)C=C2C=C[C@H](C)[C@H](CC[C@@H]3C[C@@H](O)CC(=O)O3)[C@H]21,-0.645%,0.035%,1.15%,-14.8%,-9.23%
O=C(NCCCc1ccccc1F)[C@H]1CCC[C@@H](O)C1,-0.638%,-2.2%,0.536%,-6.18%,-2.09%
CSc1ccc(CCNC(=O)c2cc3n(n2)CCCN(Cc2ccc(F)cc2)C3=O)cc1,-5.26%,0%,-0.403%,-6.05%,3.22%
CSc1ccc(CCNC(=O)CNC(=O)C2(C)Cn3c(cc4ccccc43)C(=O)N2C)cc1 (stereo not drawn),2.92%,6.32%,9.37%,3.56%,0.395%
Cc1ccc(CNC(=O)C2(C)Cc3ccccc3C(=O)N2c2cccc(C)c2)cc1 (stereo not drawn),1.75%,3.54%,13%,1.59%,10.3%
CC1CCC(NC(=O)C2(C)Cn3c(ccc3-c3ccccc3)C(=O)N2CCc2cccs2)CC1 (stereo not drawn),3.82%,0.479%,-3.99%,-1.95%,1.09%
O=C(/C=C/c1nc2ccccc2[nH]1)c1c(-c2ccccc2)c2cc(Cl)ccc2[nH]c1=O,–,-30.6%,–,-45.3%,-3.13%
CC1(C(=O)NC2CCCCCCC2)Cn2c(cc3sccc32)C(=O)N1C1CCCCC1 (stereo not drawn),3.16%,-9.5%,7.75%,1.31%,0.673%
CC(C)(C)c1nn2c(SCC(=O)Nc3cccc(Cl)c3)nnc2[nH]c1=O,5.1%,1.46%,5.27%,-5.57%,-3.44%

Compound,"activity change, negative = inhibition [1]","activity change, negative = inhibition [2]","activity change, negative = inhibition [3]","activity change, negative = inhibition [4]","activity change, negative = inhibition [5]"
CCCN(CC1CC1)C(=O)[C@@H]1COCC(=O)N1Cc1ccccc1,-8.33%,-13.2%,-4.23%,-18.4%,-6.95%
CC1(CNCc2ccccc2)COc2ccc(C(=O)NCc3cccs3)cc2N1 (stereo not drawn),-4.46%,-0.925%,-14.3%,-4.73%,0.984%
CCc1ccc(CNC(=O)CNC(=O)C2(C)Cn3c(cc4ccccc43)C(=O)N2C)cc1 (stereo not drawn),-1.59%,3.18%,5.6%,1.44%,3.46%
CC1(C)CC[C@]23CO[C@@]4(CCC5[C@@]6(C)CC[C@H](O[C@@H]7OC[C@H](O[C@@H]8O[C@H](CO)[C@@H](O)[C@H](O)[C@H]8O[C@@H]8OC[C@@H](O)[C@H](O)[C@H]8O)[C@H](O)[C@H]7O[C@@H]7O[C@H](CO)[C@@H](O)[C@H](O)[C@H]7O)[C@@](C)(CO)C6CC[C@@]5(C)[C@]4(C)C[C@H]2O)[C@@H]3C1 (stereo partly drawn),1.09%,6.78%,4.55%,-3.41%,5.81%
CC(=O)Nc1c2n(c3ccc(F)cc13)CC(C)(C(=O)NCCC(C)C)N(CCc1ccccc1)C2=O (stereo not drawn),0.74%,0.058%,5.6%,1.27%,-1.98%
CC(C)CCNC(=O)C1(C)Cn2c(nc3ccccc32)C(=O)N1CCc1ccc(Cl)cc1 (stereo not drawn),-4.06%,0%,5.67%,-3.53%,1.89%
CC(C)CCNC(=O)C1(C)Cn2c(cc3ccccc32)C(=O)N1Cc1cccc(Cl)c1 (stereo not drawn),4.73%,3.89%,8.29%,5.89%,2.86%
O=C(CCCCC1CCCCC1)N1CCC(c2cnc[nH]2)CC1,-2.58%,7.01%,7.85%,-19.2%,0.366%
COCc1nnc2n1CCC(NC(=O)Cc1c[nH]c3ccccc13)CC2 (stereo not drawn),-0.536%,-1.11%,-0.754%,6.12%,1.87%
COC(=O)c1cc2n(n1)CC(C)(C(=O)NC1CCCCCC1)N(c1cccc(OC)c1)C2=O (stereo not drawn),0.186%,1.07%,2.68%,-3.28%,-4.21%
N#Cc1cccnc1-c1cccc(C(=O)NCCN[S+](=O)([O-])c2cccc(C(F)(F)F)c2)c1,-2.75%,-5.05%,-1.09%,-6.39%,-10.5%
Cc1cc(CNS(=O)(=O)c2ccc3c(c2)oc(=O)n3C)c(C)n1-c1ccc(F)cc1,-2.44%,1.94%,11.2%,4.87%,6.41%
CCCNC(=O)N1CCn2cccc2C1CCC (stereo not drawn),6.11%,2.9%,6.91%,4.01%,8.41%
O=C(Nc1ccccc1)N1CCC(Cc2cnc3ccccc3c2)CC1,-4.68%,2.8%,4.26%,-18.6%,-6.66%
O=C(N[C@@H]1CCN(C(=O)c2n[nH]c3ccccc23)C[C@H]1O)c1cccnc1,-0.2%,-2.52%,3.14%,-3.42%,1.89%
Cc1ccc(NC(=O)CSc2nnc3n(Cc4ccccc4)c(=O)c4ccccc4n23)cc1,-0.832%,-0.401%,2.35%,0.219%,-0.293%
CS(=O)(=O)N1CC(F)(F)C[C@H]1c1nc(C2CC2)no1,0.089%,-0.671%,2.03%,0.375%,0.532%
Cc1cc(C)cc(N2C(=O)CSc3c(c4ccccc4n3C)C2C(=O)NCc2ccc(F)cc2)c1 (stereo not drawn),-2.99%,1.12%,4.1%,0.331%,0.997%
CC(C)n1c(=O)c2ccc(C(=O)NC3CCCC3)cc2n2c(=O)n(CC(=O)c3cccc(Cl)c3)nc12,-3.06%,1.4%,2.51%,-1.5%,1.81%
Cn1cc(S(=O)(=O)NC2CC(c3cc(N4CCC(O)C4)ncn3)C2)cn1 (stereo not drawn),-0.43%,2.69%,2.01%,-3.52%,-18.1%
CCCS(=O)(=O)N1CCc2nn(CC3CC3)c(=O)n2CC1,0.746%,0.79%,0.222%,4.31%,5.76%
CCOc1ccc(CN2C(=O)c3c(C(=O)OC)ncn3CC2(C)C(=O)NC2CCCC2)cc1 (stereo not drawn),-0.011%,-0.674%,-3.62%,-0.264%,0.048%
C/C=C/CC(C)C(O)C1C(=O)NC(CC)C(=O)N(C)CC(=O)N(C)C(CC(C)C)C(=O)NC(C(C)C)C(=O)N(C)C(CC(C)C)C(=O)NC(C)C(=O)NC(C)C(=O)N(C)C(CC(C)C)C(=O)N(C)C(CC(C)C)C(=O)N(C)C(C(C)C)C(=O)N1C (stereo not drawn),2.74% and 10.8%,25.2% and 26.9% and 11.3%,12.5% and 14.2%,5.83% and 9.89% and -8.83%,9.58% and 4.42% and -4.59%
CCCn1c(=O)c2ccc(C(=O)NC3CCCC3)cc2n2c(=O)n(Cc3cccc(C)c3)nc12,1.14%,0%,2.39%,-1.44%,3.37%
CCc1cc2c(cc3n2CC(C)(C(=O)NC2CCC(C)CC2)N(Cc2ccccc2C)C3=O)s1 (stereo not drawn),3.19%,0.45%,6.88%,-4.75%,1.23%
CCN1C(=O)c2cc(C(=O)NCCCOC)nn2CC1(C)C(=O)NC1CCCC1 (stereo not drawn),4.51%,5.2%,-10.8%,7.51%,4.47%
CCOCCCNc1nc2c(S(=O)(=O)c3c(C)cc(C)cc3C)nnn2c2ccccc12,-8.77%,3.23%,2.79%,3.53%,-3.02%
